# Measured values: the supplement of paper PMC3334620
# In all, about 33,000 sequences were measured (“E-score (-0.5 to 0.5)”: median about -0.016, highest 2% from about 0.32 on). The list shows a part of the results.
# Molecular target: T1, Stp1 (UniProt B3LFK1)
# T1 sequence: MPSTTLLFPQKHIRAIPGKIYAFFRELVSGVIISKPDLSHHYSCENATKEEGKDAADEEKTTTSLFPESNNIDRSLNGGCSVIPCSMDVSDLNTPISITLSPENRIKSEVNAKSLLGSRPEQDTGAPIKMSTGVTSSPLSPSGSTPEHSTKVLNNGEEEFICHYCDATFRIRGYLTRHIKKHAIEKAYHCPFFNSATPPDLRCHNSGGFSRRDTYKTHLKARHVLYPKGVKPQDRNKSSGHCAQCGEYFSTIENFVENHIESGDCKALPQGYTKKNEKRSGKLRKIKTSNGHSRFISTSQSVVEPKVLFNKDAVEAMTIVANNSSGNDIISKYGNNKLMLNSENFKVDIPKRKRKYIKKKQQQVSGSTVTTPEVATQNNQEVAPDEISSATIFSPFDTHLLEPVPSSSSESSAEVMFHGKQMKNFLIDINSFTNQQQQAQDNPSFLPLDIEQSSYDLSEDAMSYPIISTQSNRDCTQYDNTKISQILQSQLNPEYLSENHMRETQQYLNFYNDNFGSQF
# Assay: PBM E-score (8-mer binding enrichment) (E-score (-0.5 to 0.5)); higher = stronger / more preferred TF binding; most listed sequences are background and not binding sites
# Conditions: protein concentration: 200 nM; construct: GST-full length
# How it was run: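 Yeast transcription factors carrying a GST tag, as full-length proteins or DNA-binding domains, were produced by PURExpress in vitro transcription/translation. About 100-200 nM protein was applied to universal all-10-mer Agilent arrays, double-stranded by primer extension on fresh or once-stripped slides. Bound protein was detected with fluorescent anti-GST, and scans were normalised with masliner. The Universal PBM Analysis Suite gave each ungapped eight-base word, pooled with its reverse complement, an E-score, a modified Wilcoxon-Mann-Whitney statistic.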
row,Sequence,PBM E-score
1,AAACTGTC,-0.12
2,ATCCCCTC,-0.285
3,CGTACGAA,0.186
4,AACTGCCT,0.0172
5,CTTGTTAA,0.122
6,ATACAGAT,0.0901
7,AAATATCA,0.174
8,CCCGATAC,-0.242
9,GTGCCAAA,0.119
10,AAGTTACC,0.0332
11,CTACGAAC,0.168
12,CCGGCCCA,-0.21
13,AAGGGTTG,-0.145
14,ACTAGTCA,-0.157
15,CTCGCATA,0.0401
16,GAAACGTC,-0.0114
17,CCAATAGG,0.0256
18,ATGGTCTA,-0.0594
19,CTATTAGA,-0.0335
20,TCTGAACA,-0.0325
21,CGCGGCGA,0.451
22,AACGGACG,0.0236
23,CTACTTTC,0.0804
24,ATGTTCTC,-0.234
25,ATGTCAGC,-0.019

row,Sequence,PBM E-score
1,ACGGTTCT,0.0457
2,AGCCGGGA,-0.089
3,CTTTAACA,0.161
4,GTTAATTA,0.106
5,AGAGTGAT,-0.0712
6,CGGCGAAC,0.317
7,ATTCAAAA,0.25
8,CGGTTGTA,-0.0398
9,TGATGCCA,0.288
10,GTTGAGGA,0.136
11,GTGTGCGA,-0.00917
12,CGGTCGAC,-0.0792
13,AAAATAAA,0.124
14,CCGCATTA,0.209
15,ATACCCTC,-0.0668
16,CTTTGTGC,0.203
17,TCCACTCA,-0.0458
18,AGTTATGA,-0.0432
19,ATCGAGTA,-0.128
20,GGGTAGAA,0.0651
21,ATGAAATA,0.143
22,ACCCAACG,-0.101
23,ATCCATAC,-0.0143
24,GGGAGTAC,-0.2
25,GCCCTGAA,-0.0439

row,Sequence,PBM E-score
1,TGAACTCA,-0.0569
2,CCTAAAGC,0.00183
3,AATCGCTA,-0.0893
4,AAACTCCC,-0.251
5,AAGATTAG,0.0851
6,GCAGGCCC,-0.362
7,CTTCAACC,0.0869
8,CCCATTCC,-0.342
9,ATATGGAC,-0.0467
10,ACGATGCT,-0.0649
11,AACTAGAA,0.0373
12,GTCAGGAC,-0.109
13,CCTAACCC,-0.24
14,GTGGTCTA,-0.307
15,GCCTTAGC,0.281
16,ATTTTCGA,0.115
17,GATGTCCC,-0.299
18,CAGTTGAC,0.0275
19,CCGCGCCA,0.252
20,GCGTTGAA,0.138
21,AATAGAAC,0.0648
22,CACGGCCC,0.337
23,CTTGGGAA,0.103
24,CTAGTAGA,0.0413
25,AGCGCCCG,-0.00709

row,Sequence,PBM E-score
1,ACACCGTC,-0.075
2,CGGACTGC,-0.0939
3,AATGCATG,0.00781
4,ATTGAGCG,-0.0277
5,CGTAAATA,0.244
6,ATTTTCCG,0.228
7,AATCTTGA,-0.0147
8,ATTCGTTA,0.0278
9,GCCCGGTA,-0.322
10,GGTTTCAA,-0.0223
11,GTCGATCA,-0.196
12,ACTTTCTC,-0.167
13,GGGGTCAA,-0.185
14,AAACGAGA,0.0632
15,AATGCTTA,-0.0581
16,CGCCCGCA,0.128
17,CACGCTAA,0.0887
18,AGCATGCC,0.0256
19,GGAAGTCA,-0.135
20,AGTGCCTG,-0.0958
21,GCCCCCTA,-0.198
22,AGATCGAG,-0.197
23,AGGCATGG,0.134
24,ACCCATAA,0.0305
25,GCTGCCCC,-0.0352

row,Sequence,PBM E-score
1,CAGTTAAC,0.072
2,CTTCCAAG,-0.0826
3,GTTGCATA,0.0182
4,ATCTCGCG,0.145
5,GAGCACAC,-0.317
6,CAACTGGG,-0.215
7,CGAATCTA,0.0157
8,GATCCCCA,0.0723
9,TGGCAGAA,0.221
10,CCCTGTTC,-0.106
11,CCAATCGA,-0.0389
12,GATACTTA,-0.193
13,CACTCAGG,-0.109
14,AACCCACC,-0.0858
15,AACATAAG,0.186
16,GACACCGA,-0.156
17,AGCAGCTA,0.0736
18,ACTGTTTA,-0.00958
19,ATCTACTA,0.136
20,AGTCTCAG,-0.0507
21,ATGTTAAC,0.0197
22,AAGCCATG,-0.0501
23,ACCGTGGA,0.0243
24,CAGTAAGA,-0.0015
25,CCGACGAA,0.0519

row,Sequence,PBM E-score
1,ACTCACGG,0.108
2,ACGTCTAG,0.00558
3,CCTGGCTC,-0.0865
4,GCCTAGGC,0.014
5,AGTGACCG,-0.127
6,GCCTGACC,-0.0717
7,ACCCCCTG,-0.3
8,AGGTGAGC,-0.153
9,AGTGGTGC,0.0413
10,ACCACGCG,0.122
11,ATAGTGGG,-0.133
12,ACTAAACA,0.0434
13,AACCAACA,0.158
14,CGTTTATC,0.121
15,ATCATCCC,-0.156
16,CGTCATTA,-0.0458
17,GTCAACCA,-0.14
18,ATGACGAC,-0.131
19,GTTAGGGA,-0.178
20,CGTGGCAG,0.239
21,CGCGTGGA,-0.0367
22,GTACTTAA,-0.119
23,CACAGGTC,-0.22
24,ATAGGCCG,-0.136
25,ATACAAAC,0.144

row,Sequence,PBM E-score
1,CACGTTCG,-0.00629
2,CTAGGAGA,-0.102
3,AACCGCGT,0.174
4,TTAATAAA,0.204
5,TGACTCCA,-0.321
6,CACGTAGC,-0.158
7,CATGAACC,-0.0272
8,GAATTGGA,0.0415
9,CGTTGCCC,0.0835
10,CCCCTAAG,-0.284
11,CCGATACG,-0.0133
12,ACTCCTGG,-0.188
13,CCGTCAGG,-0.151
14,AAGACTTC,-0.157
15,GACCATGC,0.018
16,GTAATGGA,0.108
17,GAGACCGA,-0.217
18,CAACGTCA,-0.0755
19,TCCAAAAA,0.05
20,AGCCTGCC,-0.163
21,GGCGCCGA,0.421
22,AACGAACA,0.19
